Changes are numbered by the printed parent chain.
B1: ZGE0214 (domain E with A/R/I at positions 33/40/51) (designed binder)
chain: AQHDEAQQNAFYQVLNMPNLNADQRNGFIQALKDDPSRSANVLGEAQKINDSQAPK
B2: ZGE0234 (domain E with A/G/R at positions 33/40/51) (designed binder)
chain: B1 chain with R38G, I49R

Target: T1, Fc fragment from adalimumab
T1 construct: also called adalimumab Fc fragment
Experiment: SPR; ligand on CM5; max response at 800 nM, rounded to 50 Ru

Binder	max response (Ru)
B1	1650
B2	1100
